Test results published in article PMC10917059.
Results are given in words; binding and its absence hold for the method and conditions named. Binding seen in cells or lysates may run through a third protein. Some results given as binding are weak or reduced against the parent protein; the word gives no strength. Blank lines part the entries; values can stand above or below the substance they belong to.

Chains of the proteins cited; added tags and fusions are not shown. Lines headed by an entry give the natural chain unless they say otherwise; changes in a name come on top. A line that says so, or that is headed by a name, gives the form on record, which may keep a tag or linker. Residues count along the entry.
UniProt Q7L0Q8: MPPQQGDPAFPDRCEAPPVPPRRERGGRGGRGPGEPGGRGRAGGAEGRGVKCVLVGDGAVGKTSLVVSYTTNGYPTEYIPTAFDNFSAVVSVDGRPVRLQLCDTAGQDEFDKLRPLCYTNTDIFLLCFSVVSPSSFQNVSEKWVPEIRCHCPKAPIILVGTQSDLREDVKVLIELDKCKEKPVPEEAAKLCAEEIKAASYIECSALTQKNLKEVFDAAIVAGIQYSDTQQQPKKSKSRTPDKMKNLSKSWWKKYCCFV
GFP–RhoU(204–258): residues 204-258 of Q7L0Q8
GFP–RhoU(231–258)mut (Q7L0Q8, form named): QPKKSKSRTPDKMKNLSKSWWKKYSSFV
UniProt Q13177: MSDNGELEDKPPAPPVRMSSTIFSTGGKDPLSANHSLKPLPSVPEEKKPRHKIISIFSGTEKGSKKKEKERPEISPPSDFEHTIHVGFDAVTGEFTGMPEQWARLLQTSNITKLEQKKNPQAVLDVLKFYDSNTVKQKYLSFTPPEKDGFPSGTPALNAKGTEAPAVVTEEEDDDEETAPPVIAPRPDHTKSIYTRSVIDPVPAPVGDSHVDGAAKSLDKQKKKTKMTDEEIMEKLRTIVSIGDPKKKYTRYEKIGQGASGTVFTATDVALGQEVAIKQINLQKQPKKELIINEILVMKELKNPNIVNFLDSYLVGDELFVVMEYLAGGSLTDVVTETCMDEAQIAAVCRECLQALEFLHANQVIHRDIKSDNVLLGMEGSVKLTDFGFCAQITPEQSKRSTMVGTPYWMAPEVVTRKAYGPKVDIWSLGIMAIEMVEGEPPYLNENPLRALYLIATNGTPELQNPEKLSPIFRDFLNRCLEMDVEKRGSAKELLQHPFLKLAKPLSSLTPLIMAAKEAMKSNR

How the values were obtained:
GFP–RhoU (human) [1] = target: GFP–RhoU (human) (UniProt Q7L0Q8); experiment: FRET or BRET; FLIM-FRET of GFP and mCherry fusions in PC3 cells on fibronectin-coated glass, fixed after 4 h
GFP–RhoU (human) [2] = target: GFP–RhoU (human) (UniProt Q7L0Q8); experiment: FRET or BRET; FLIM-FRET of GFP and mCherry fusions in nucleofected Jurkat cells on fibronectin with 1 ng/ml CXCL12, fixed after 15 min
[3] = target: Myc–RhoU(231–258) (human) (UniProt Q7L0Q8); experiment: co-IP; lysates of co-transfected COS7 cells, Myc-Trap agarose beads, 1 h at 4°C, 10 mM Tris-HCl pH 7.5, 150 mM NaCl, NP40; blots with anti-GFP, anti-Myc and anti-HA; in Fig. 2D cells treated with DMSO or 100 µM 2-BP for 2 h
Myc–RhoU (human) [4] = target: Myc–RhoU (human) (UniProt Q7L0Q8); experiment: as above
Myc–PAK2 = Myc–PAK2 (UniProt Q13177); experiment: as above
GFP–RhoU (human) [5] = target: GFP–RhoU (human) (UniProt Q7L0Q8); experiment: co-IP; lysates of co-transfected COS7 cells, GFP-Trap agarose beads, 1 h at 4°C, 10 mM Tris-HCl pH 7.5, 150 mM NaCl, NP40; blots with anti-GFP and anti-Myc
[6] = target: GFP–RhoU(204–258) (human) (UniProt Q7L0Q8); experiment: as above
[7] = target: GFP–RhoU(231–258) (human) (UniProt Q7L0Q8); experiment: as above
[8] = target: GFP–RhoU(C255S, C256S) (human) (UniProt Q7L0Q8); experiment: as above
Myc–RhoU (human) [9] = target: Myc–RhoU (human) (UniProt Q7L0Q8); experiment: cross-linking; lysates of transfected COS7 cells in 20 mM HEPES pH 7.2, 1% Triton X-100, incubated with DSS (0.25 mM in the methods; increasing concentrations in the results) or DMSO for 30 min at 4°C; anti-Myc blot

- binding (GFP–RhoU (human) [1]): binds
- binding (GFP–RhoU (human) [2]): binds
Substance: mCherry–RhoU (from UniProt Q7L0Q8-1 1-258)

- binding [3]: binds
Substance: GFP–RhoU(231–258) (from UniProt Q7L0Q8-1 231-258) (domain or fragment)

- binding (Myc–RhoU (human) [4]): binds
- binding [3]: binds
Substance: GFP–RhoU (from UniProt Q7L0Q8-1 1-258)

- binding (Myc–PAK2): binds
- binding (Myc–RhoU (human) [4]): binds
Substance: HA–RhoU (from UniProt Q7L0Q8 1-258)

- binding (GFP–RhoU (human) [5]): binds
- binding [6]: binds
- binding [7]: binds
- binding [8]: no binding
- binding (Myc–RhoU (human) [9]): binds
Substance: Myc–RhoU (from UniProt Q7L0Q8-1 1-258)

- binding (Myc–RhoU (human) [4]): binds
Substance: GFP–RhoU(Q107L) (from UniProt Q7L0Q8-1 1-258)

- binding (Myc–RhoU (human) [4]): no binding
Substance: GFP–RhoU(231–258)mut (from UniProt Q7L0Q8 231-258) (domain or fragment)
